In PubChem BioAssay AID686970 (National Center for Advancing Translational Sciences (NCATS), 2013):
About 6,000 (1.7%) of roughly 360,000 compounds were called active. The shares of active, inactive and inconclusive entries below differ from those in the screen. The call rests on the fitted dose curve; in most records, active means well fitted cell-killing curve with a large enough effect; inconclusive means small, poorly fitted or top-dose-only effect, or effect the other way; inactive means flat fitted curve, though single readings scatter. Potencies of inconclusive entries are left out as doubtful fits.

experiment: qHTS for induction of synthetic lethality in tumor cells producing 2HG: qHTS for the HT-1080-NT fibrosarcoma cell line; conditions: HT-1080-NT fibrosarcoma viability, CellTiter-Glo ATP luminescence, 48 h; activity, negative = less viability: at 46.1 µM (top of the series) unless noted;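 further: NT is the 2HG producing partner of a matched IDH1 knockdown line; nearly all actives have a fitted effect of over 55% in size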;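 on activity, negative = less viability: 0% = DMSO-treated cells and -100% = media-only wells without cells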
Summary of the method: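 750 cells/well, RPMI + 5% FBS; 2 h settle, compound pin-transfer, 48 h at 37 degrees C. CellTiter-Glo 10 min RT, luminescence. Normalized to DMSO and media-only wells.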
Potency means the concentration at half of the fitted maximal effect; tags describe the fitted curve by direction and shape.

Row | Structure (SMILES) | Potency | activity, negative = less viability
1 | CCn1c(O)c(N=NC(=O)CNC(=O)c2ccco2)c2ccccc21 | inactive | –
2 | Cc1cccc(NC(=O)Cn2nc(C(F)(F)F)cc2C2CC2)c1 | inconclusive [cytotoxic, single point] | –
3 | O=c1[nH]cnc2c1ncn2[C@@H]1C[C@@H](O)[C@H](CO)O1 | inconclusive [rising, single point] | –
4 | Cc1ncc([N+](=O)[O-])n1S(=O)(=O)c1cc(Br)ccc1Br | inactive | –
5 | O=C(CSc1n[nH]c(-c2ccncc2)n1)Nc1ccc(F)cc1 | – | inconclusive: -4.56% [cytotoxic]
6 | CCOC(=O)CSc1nc2c(sc(=S)n2-c2ccccc2OC)c(=O)n1-c1ccccc1OC | inactive | –
7 | Cc1ccc(C2CC(c3ccccc3)=NN2C(=S)Nc2ccccc2)o1 (stereo unspecified) | inconclusive [cytotoxic, partial curve] | –
8 | Cc1ccccc1-c1cnc(C(O)c2cccc(C)c2C)[nH]1 (stereo unspecified) | inconclusive [cytotoxic, partial curve] | –
9 | COc1cccc(/C=N/NC(=O)CN2CC(c3ccccc3)CC2=O)c1O (stereo unspecified) | inconclusive [cytotoxic, single point] | –
10 | COc1ccc2cc(C#N)c(SCC(=O)Nc3nonc3C)nc2c1 | inconclusive [cytotoxic, single point] | –
11 | CCCCc1ccc(NC(=O)N2CCNC(=O)C2CC(=O)Nc2ccsc2C(=O)OC)cc1 (stereo unspecified) | inconclusive [cytotoxic, single point] | –
12 | Cc1cc(-c2nnc(SCC(=O)Nc3ccccc3C(F)(F)F)o2)c(C)n1-c1ccccc1 | inactive | –
13 | OCCN1CCN(c2ncnc3c2c(-c2ccccc2)cn3-c2ccc(F)cc2)CC1 | inconclusive [cytotoxic, single point] | –
14 | CCn1c(CCNC(=O)c2ccc(C)cc2)nnc1SCc1ccc(Cl)c(Cl)c1 | inactive | –
15 | COc1ccc(C2Nc3ccccc3C(=O)N2Cc2ccco2)cc1COc1ccccc1F (stereo unspecified) | inactive | –
16 | CSC1=NCCN1C(=O)c1ccc(S(=O)(=O)N2CCCCC2)cc1 | inactive | –
17 | CCN(Cc1ccccc1)C(c1cccs1)c1nnnn1C1CCCCC1 (stereo unspecified) | inconclusive [cytotoxic, single point] | –
18 | CCOC(=O)C1=C(C)N(CC(C)C)C(=O)/C1=C\c1ccc(OCC(=O)Nc2ccccc2)cc1 | inactive | –
19 | Cc1ccc(SCc2[nH]nc3c2C2(C(=O)Nc4ccc([N+](=O)[O-])cc42)C(C#N)=C(N)O3)cc1 (stereo unspecified) | inconclusive [cytotoxic, single point] | –
20 | CC(C)CNC(=O)c1cccc(NC(=O)c2ccc(NC(=O)c3ccco3)cc2)c1 | inconclusive [cytotoxic, single point] | –
21 | CCN(CC)c1ccc(NC(=O)c2cc(Cl)ccc2OC)cc1 | inconclusive [cytotoxic, partial curve] | –
22 | Oc1ccc(CN2CCCCC2)c2cccnc12 | active: 3.16 µM | –
23 | COc1ccc(C(C(=O)NCC2CCCO2)N(Cc2cccs2)C(=O)c2snc(C(N)=O)c2N)cc1 (stereo unspecified) | inactive | –

Row | Structure (SMILES) | Potency | activity, negative = less viability
24 | COc1ccccc1CNc1cc(CSc2ccc(Cl)cc2)nc(C)n1 | inconclusive [cytotoxic, single point] | –
25 | O=C(Cn1sc2ccccc2c1=O)Nc1ccccc1 | inconclusive [cytotoxic, single point] | –
26 | Cc1ccc(OS(=O)(=O)c2ccccc2)c(/C=N/N=C2\NC(=O)C(C)S2)c1 (stereo unspecified) | inactive | –
27 | Cc1ccccc1/C=C/c1cccc[n+]1C | inconclusive [cytotoxic, single point] | –
28 | CCOC1=C2[C@@H](CN(S(=O)(=O)c3ccc(C)cc3)[C@H]2c2ccccc2F)[C@H]2C(=O)N(CC)C(=O)[C@H]2C1 | inactive | –
29 | O=C(O)c1ccc(N/N=C/c2ccc(-c3ccccc3)cc2)cc1 | active: 16.4 µM | –
30 | O=C(Nc1ccc(Cc2ccncc2)cc1)C1CCC(N2C(=O)C3C4C=CC(C5CC45)C3C2=O)CC1 (stereo unspecified) | inconclusive [cytotoxic, single point] | –
31 | O=C(Nc1ccc(OC(F)F)cc1)c1cc[n+]([O-])cc1 | inactive | –
32 | CCOc1ccc(C(=O)Nc2ccc3c(c2)OCCO3)cc1OC | inconclusive [cytotoxic, single point] | –
33 | CC(C)c1ccc(/C=N/NC(=O)c2nnn(-c3nonc3N)c2CN(C)C2CCCCC2)cc1 | inconclusive [rising, partial curve] | –
34 | CCN1C(=NCCc2cccs2)N[C@@H](c2cccs2)C(C(=O)OC)=C1C | inconclusive [cytotoxic, single point] | –
35 | Cc1ccc(CS(=O)(=O)c2ncc(Cl)c(C(=O)Nc3nnc(C)s3)n2)cc1 | inconclusive [cytotoxic, single point] | –
36 | CCOC(=O)C1(C)NC(c2ccccc2F)C2C(=O)N(c3cccc(C(C)=O)c3)C(=O)C21 (stereo unspecified) | inconclusive [cytotoxic, single point] | –
37 | CCNC(=O)C1CCCN(C(=O)c2ccc(C(=O)OC)cc2)CC1 (stereo unspecified) | – | inconclusive: 30.3%
38 | O=C(Nc1nccs1)c1ncc(Cl)c(Cl)c1Cl | inconclusive [cytotoxic, single point] | –
39 | O=S(=O)(NCCSc1nnc(-c2ccco2)n1-c1ccccc1)c1ccccc1 | inactive | –
40 | O=C(OCC(=O)N1CCCC1)c1ccc(OC(F)(F)F)cc1 | inconclusive [rising, single point] | –
41 | O=C(Oc1ccc[nH]c1=O)c1cccc(Cl)c1 | inconclusive [cytotoxic, single point] | –
42 | Cn1c(Oc2ccccc2NCc2cc(Br)ccc2O)cc(=O)n(C)c1=O | inconclusive [cytotoxic, single point] | –
43 | O=C(/C=C/c1ccc(F)cc1)NC(=S)Nc1ccccc1O | inactive | –
44 | COc1ccc(C(C)(C)NC(=O)C2CCC(=O)N(CCCN3CCCC3=O)C2)cc1 (stereo unspecified) | inactive | –
45 | CC(=O)c1ccc(S(=O)(=O)NC2CC(=O)N(c3ccc(Cl)cc3)C2)cc1 (stereo unspecified) | inactive | –
46 | CCC(CO)Oc1cc(NCc2cccc(Cl)c2)c2ncn(C(C)C)c2c1 (stereo unspecified) | inconclusive [cytotoxic, single point] | –
